The full ranking holds about 18,000 sequences; the median of “TetR repression strength (sort-seq, GFP reporter)” is about 0.23, and the highest 2% start at about 0.68. The list shows a part of the results.
Target: TetR (class B, Tn10) (UniProt P04483)
Assay: TetR repression strength (sort-seq, GFP reporter) (relative to tetO2 = 1); higher = stronger repression
Details: E. coli
Outline: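 Three independent transformations of E. coli SIG10-MAX were made with a low-copy plasmid library randomizing eight operator positions between a constitutive promoter and sfGFP, with constitutive TetR. Following 5 h at 37 °C in LB plus 50 µg/mL chloramphenicol, 10^6 cells went through FACS into 13 fluorescence bins, and each bin was sequenced by Illumina. Repression strength was defined as the top bin index plus one minus the read-weighted mean bin, divided by the unaltered operator's value. Averages included only members reaching ≥30 reads in all replicates with a CV ≤0.5.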

Chain of UniProt P04483 (P04483 whole entry): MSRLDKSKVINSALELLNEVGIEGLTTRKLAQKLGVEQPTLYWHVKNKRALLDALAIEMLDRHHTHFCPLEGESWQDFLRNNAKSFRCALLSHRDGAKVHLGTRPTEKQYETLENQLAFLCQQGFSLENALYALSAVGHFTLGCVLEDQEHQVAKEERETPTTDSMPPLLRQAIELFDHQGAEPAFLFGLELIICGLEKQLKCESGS

| Sequence | TetR repression strength |
| --- | --- |
| TCCCCTATAGTGACGGAGA | 0.159 |
| TCCCGAGAAGTGCCTGAGA | 0.178 |
| TCCCTAGGAGTATTGGAGA | 0.205 |
| TCCCCGAAAGTAACGGAGA | 0.301 |
| TCCCTGCTAGTGGTTGAGA | 0.00782 |
| TCCCGGAGAGTGAAGGAGA | 0.242 |
| TCCCCTCTAGTGAGGGAGA | 0.179 |
| TCCCTGAGAGTCAGGGAGA | 0.256 |
| TCCCGCGGAGTCAAAGAGA | 0.248 |
| TCCCGGTCAGTGAACGAGA | 0.572 |
| TCCCGTTCAGTCATCGAGA | 0.413 |
| TCCCCGCTAGTGCGCGAGA | 0.39 |
| TCCCCTGCAGTATTAGAGA | 0.211 |
| TCCCTGGTAGTTCTTGAGA | 0.181 |
| TCCCGTCTAGTGTAGGAGA | 0.463 |
| TCCCTGCGAGTTGCGGAGA | 0.266 |
| TCCCGGAAAGTGGATGAGA | 0.165 |
| TCCCTTAAAGTGAAGGAGA | 0.097 |
| TCCCGCAAAGTGAATGAGA | 0.207 |
| TCCCCCTGAGTTGGTGAGA | 0.38 |
| TCCCGTCGAGTTTGGGAGA | 0.295 |
| TCCCGCTAAGTCTACGAGA | 0.0688 |
| TCCCTTACAGTGCACGAGA | 0.358 |
| TCCCTTGCAGTGACTGAGA | 0.341 |
| TCCCATATAGTTGAAGAGA | 0.39 |
| TCCCAATGAGTCGTCGAGA | 0.193 |

| Sequence | TetR repression strength |
| --- | --- |
| TCCCGCGAAGTTCCCGAGA | 0.195 |
| TCCCAGCCAGTGAAGGAGA | 0.21 |
| TCCCAATTAGTAAAGGAGA | 0.467 |
| TCCCTCGGAGTAAATGAGA | 0.236 |
| TCCCCATTAGTGGTGGAGA | 0.215 |
| TCCCGTCTAGTCAGAGAGA | 0.0894 |
| TCCCATACAGTTAATGAGA | 0.311 |
| TCCCCATGAGTTGGTGAGA | 0.0296 |
| TCCCAGGGAGTTGTGGAGA | 0.188 |
| TCCCGCGAAGTAGTAGAGA | 0.227 |
| TCCCACCCAGTAGTGGAGA | 0.211 |
| TCCCTAGCAGTCTTCGAGA | 0.495 |
| TCCCATGGAGTGAGGGAGA | 0.242 |
| TCCCACAGAGTGCGAGAGA | 0.223 |
| TCCCTGCTAGTAAGCGAGA | 0.168 |
| TCCCTCTCAGTTGTCGAGA | 0.462 |
| TCCCTCTGAGTGGGTGAGA | 0.195 |
| TCCCGGTAAGTTGGTGAGA | 0.19 |
| TCCCCATGAGTCGCGGAGA | 0.194 |
| TCCCGCGAAGTGAGCGAGA | 0.248 |
| TCCCTAGAAGTTTGAGAGA | 0.202 |
| TCCCTATTAGTTGAAGAGA | 0.138 |
| TCCCGTTCAGTCGGCGAGA | 0.0929 |
| TCCCTACAAGTTCGTGAGA | 0.272 |
| TCCCTTGGAGTACACGAGA | 0.237 |
| TCCCTATCAGTGGTTGAGA | 0.591 |

| Sequence | TetR repression strength |
| --- | --- |
| TCCCGCCGAGTGACTGAGA | 0.333 |
| TCCCATTCAGTGTATGAGA | 0.207 |
| TCCCACTCAGTTGTGGAGA | 0.353 |
| TCCCACAGAGTGTTGGAGA | 0.0429 |
| TCCCGGTAAGTAGCTGAGA | 0.208 |
| TCCCCAATAGTTGGGGAGA | 0.143 |
| TCCCGGGCAGTTTGGGAGA | 0.326 |
| TCCCTGTGAGTGCGGGAGA | 0.112 |
| TCCCTGCGAGTTTACGAGA | 0.25 |
| TCCCGAATAGTCGACGAGA | 0.165 |
| TCCCGGTAAGTGGGGGAGA | 0.17 |
| TCCCGGATAGTTGCTGAGA | 0.22 |
| TCCCTCGGAGTGTTAGAGA | 0.589 |
| TCCCGCGTAGTAGGAGAGA | 0.691 |
| TCCCGTGGAGTGAACGAGA | 0.133 |
| TCCCGCTGAGTAGGAGAGA | 0.154 |
| TCCCGCTGAGTGGCGGAGA | 0.195 |
| TCCCGAGTAGTATTGGAGA | 0.258 |
| TCCCATGTAGTATGCGAGA | 0.327 |
| TCCCCCCAAGTGTCTGAGA | 0.331 |
| TCCCATGGAGTGGTCGAGA | 0.075 |
| TCCCGCCGAGTGAGAGAGA | 0.358 |
| TCCCGGCTAGTAGAGGAGA | 0.0518 |
| TCCCATGGAGTCGGCGAGA | 0.479 |
| TCCCTTCCAGTGGACGAGA | 0.205 |
| TCCCGGATAGTCTTCGAGA | 0.0399 |

| Sequence | TetR repression strength |
| --- | --- |
| TCCCGCCAAGTTTTTGAGA | 0.525 |
| TCCCAGTAAGTATCGGAGA | 0.221 |
| TCCCGACGAGTCCATGAGA | 0.476 |
| TCCCGAGTAGTGTTTGAGA | 0.323 |
| TCCCGTAAAGTTCAAGAGA | 0.415 |
| TCCCATAGAGTATATGAGA | 0.261 |
| TCCCATTTAGTTGTAGAGA | 0.151 |
| TCCCGACAAGTTGGGGAGA | 0.109 |
| TCCCGTCAAGTGATAGAGA | 0.382 |
| TCCCGGCAAGTACGGGAGA | 0.207 |
| TCCCATTTAGTGATCGAGA | 0 |
| TCCCTGAGAGTCAAAGAGA | 0.183 |
| TCCCGACGAGTACATGAGA | 0.629 |
| TCCCTTTGAGTGTCCGAGA | 0.294 |
| TCCCACAAAGTGTTCGAGA | 0.159 |
| TCCCGAACAGTTAAGGAGA | 0.0224 |
| TCCCACAGAGTGGCCGAGA | 0.263 |
| TCCCCGTGAGTCATCGAGA | 0.311 |
| TCCCCACAAGTGAGGGAGA | 0.956 |
| TCCCGGGAAGTGGTAGAGA | 0.0854 |
| TCCCTTAGAGTAAGGGAGA | 0.197 |
| TCCCCTCAAGTGGTAGAGA | 0.207 |
| TCCCCAAGAGTGATTGAGA | 0.227 |
| TCCCGTACAGTGGGGGAGA | 0.145 |
